Measured values taken from the RNAGym collection of RNA variant scans (doi:10.1073/pnas.2313332121).
This sample is rich in variants without activity.

B1: TPR 5TU (parent)
chain: GGAUCUUCUCGAUCUAACAAAAAAGACAAAUCUGCCACAAAGCUUGAGAGCAUCUUCGGAUGCAGAGGCGGCAGCCUUCGGUGGCGCGAUAGCGCCAACGUUCUCAACUAUGACACGCAAAACGCGUGCUCCGUUGAAUGGAGUUUAUCAUG

Variants of: B1
Test: polymerase ribozyme fitness, log enrichment relative to wild type (log ratio); higher = more active; in vitro selection for triplet polymerase activity
Method in brief: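 A single round of triplicate in vitro selection, including frozen incubation at −7 °C, was applied to PCR-built, transcribed mutant libraries of each subunit of a heterodimeric triplet polymerase ribozyme. Illumina sequencing of input and output libraries retained genotypes with ≥10 input reads and ≥1 read per output. Fitness is the base-2 logarithm of genotype enrichment divided by wild-type enrichment, from inverse-variance-weighted replicate averages.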

Variant	polymerase ribozyme fitness (log ratio)
C18U U33G C93U C116G	≤ -4.2
C18U U44A G46U A64G U77A A110C G140C U148A	≤ -4.2
C18U U53A A73U C79U C99G U104A	≤ -4.2
C18U U53A C85A C96A A137G	≤ -4.2
C18U U56A U90G C99U A120C C132U U134C	≤ -4.2
C18U U90C C96G C99A	≤ -4.2
A19C A20G G136A A147G	-2.36
A19C A20U C35G G50U U55A C85G C108G U127A	≤ -4.2
A19C A20U C38A C87G A110G U145C	≤ -4.2
A19C A20U C57U G88C G133C U135G U145A	≤ -4.2
A19C A21C U33A U56A G74A G88C U90G U101G C108G C123U G126U	≤ -4.2
A19C A21U A47G G67U A142C	≤ -4.2
A19C A22G A64U C72G C123U U144A	≤ -4.2
A19C A22G G25U U55A C75G C85A A98U A121U	≤ -4.2
A19C A23C G42U G46A G88A A150U	≤ -4.2
A19C A23U G46U U55G G74C	≤ -4.2
A19C A24C U44A C96G C103A	≤ -4.2
A19C A24C U82A C116A C118G	≤ -4.2
A19C A24U C57G C75U G92U C118A	-0.536
A19C A26C A29U G92C A97G U145G	≤ -4.2
A19C A26G C27G G48A C76A G83U A97U C118A G126A	≤ -4.2

Variant	polymerase ribozyme fitness (log ratio)
A19C A26G C43U C75G U135C	≤ -4.2
A19C A26U A39G G50A C54U A91U	≤ -4.2
A19C A28U A40G G65U U145G	≤ -4.2
A19C A29U C54G C108U	≤ -4.2
A19C A29U U53G C85G C114G	≤ -4.2
A19C A30G C85G	≤ -4.2
A19C A30G C87U G128C G136U	≤ -4.2
A19C A30U C36A G48A U53G G86C G143C	≤ -4.2
A19C A30U C51A A91U C129U A142C	≤ -4.2
A19C A39G A41U U78G G94U A107G A121U G140C G143C U146G	≤ -4.2
A19C A39G U61G A64G U90G A97U U134A	≤ -4.2
A19C A39U C43G C51G A52G C76A U139G	≤ -4.2
A19C A40C C51A C87A C116A G136U U139C U148C	≤ -4.2
A19C A40C G84C A110C G112U A119C	≤ -4.2
A19C A40U G94A A110U	≤ -4.2
A19C A41G G59U A91C A107G A120U	≤ -4.2
A19C A41G U53A C75G C129U	≤ -4.2
A19C A47C C54A U56A C87A G100C G136A	≤ -4.2
A19C A47C G59U C87U C96G A97U A142C G143A	≤ -4.2
A19C A49C	≤ -4.2
A19C A89U C96A A138G	≤ -4.2

Variant	polymerase ribozyme fitness (log ratio)
A19C A91U C95A	≤ -4.2
A19C C27A U56A G58C G84C C108G U151G	≤ -4.2
A19C C27U A47G G143U	≤ -4.2
A19C C27U C54U G74C C87U U146C	≤ -4.2
A19C C32G C85U C87G U102G A121G G124A U139G	≤ -4.2
A19C C32G G46C G65C G86A C93G	≤ -4.2
A19C C36U C54G U55C C95G	≤ -4.2
A19C C36U G70A G80U C105U G152U	-3.99
A19C C38A A49U G62A C76A G83U A98U	≤ -4.2
A19C C38U A39C U55G U135G	≤ -4.2
A19C C38U U56G U61A U146A	≤ -4.2
A19C C43A U61A G62C G80C C85U G86U A107U C131G	≤ -4.2
A19C C43U	≤ -4.2
A19C C54A C123A G128A U144A	≤ -4.2
A19C C57A A66G A73U C87U U134G A137U A147C	≤ -4.2
A19C C57A A66G A73U G92A G100U G143U	≤ -4.2
A19C C57U C72G C125G U135C G141A	≤ -4.2
A19C C57U C72U A73U G80A C95A	≤ -4.2
A19C C57U U90C U127A A137G U144G	≤ -4.2
A19C C72A C85A C103G G141C	≤ -4.2
A19C C72U C93G C108A C116U C129A	≤ -4.2

Variant	polymerase ribozyme fitness (log ratio)
A19C C76G G88A	≤ -4.2
A19C C79U A89U C108G A119U U135A G141U A147U A150G	≤ -4.2
A19C C87A C99U U139C A150C	≤ -4.2
A19C C99G A107U	≤ -4.2
A19C G25C A40G U55A U134C U148C	≤ -4.2
A19C G25C G74C C125A A142G	≤ -4.2
A19C G46A C72U G83U G92C U146A	≤ -4.2
A19C G50C U90C G126C U148C	≤ -4.2
A19C G50U U61A G92A	≤ -4.2
A19C G62C A73C G86A C96G	≤ -4.2
A19C G68A C79A C85G A91U G94C A97U G117A G136U A142U	≤ -4.2
A19C G68A C108G U111A A120U U135G	≤ -4.2
A19C G70A A98U U111C	≤ -4.2
A19C G74U C87A A98G C103G	≤ -4.2
A19C G80C C105U G117C A120U	≤ -4.2
A19C G86A	-0.455
A19C G86U A137C G143C	≤ -4.2
A19C G92A	-2.38
A19C G92U	0.745
A19C G94C U102G	≤ -4.2
